Experimental findings from the supplement of paper PMC8728848 are described below.

This is one part of the list.

What all share (test): glycan array binding signal (z-score within array); higher = stronger binding
Settings in all cases: glycan notation: IUPAC condensed, linker removed

Test [1] addresses Gal(b1-4)GlcNAc(b1-3)Gal(b1-4)GlcNAc(b1-6)[Gal(b1-3)]GalNAc. The procedure, abridged:
(§1)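 Glycan array data came from 3228 arrays in the Consortium for Functional Glycomics database, and only arrays with an available protein sequence were kept. Glycan names were put into IUPAC-condensed notation, and columns mapping to the same glycan were averaged. The binding signal is a within-array Z-score, averaged across arrays of one protein sequence run at different concentrations or buffers and across linkers. A negative Z-score can be read as non-binding.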

Test [2] deals with Gal(b1-4)GlcNAc(b1-3)Gal(b1-4)[Fuc(a1-3)]GlcNAc(b1-3)Gal(b1-4)[Fuc(a1-3)]GlcNAc. Put shortly: as §1
Test [3] deals with Gal(b1-4)GlcNAc(b1-3)GalNAc. The procedure, abridged: as §1
Test [4] has as its target Gal(b1-4)GlcNAc(b1-3)[Fuc(a1-3)GlcNAc(b1-6)]Gal(b1-4)Glc. Put shortly:
as §1

The target in test [5] is Gal(b1-4)GlcNAc(b1-3)[Gal(b1-4)GlcNAc(b1-6)]Gal(b1-4)GlcNAc. The procedure, abridged:
as §1

Test [6] addresses Gal(b1-4)GlcNAc(b1-3)[GlcNAc(b1-6)]Gal(b1-4)GlcNAc. Put shortly: as §1
The target in test [7] is Gal(b1-4)GlcNAc(b1-6)Gal(b1-4)GlcNAc. Put shortly:
as §1

The target of test [8] is Gal(b1-4)GlcNAc(b1-6)GalNAc. The procedure, abridged: as §1
For test [9], the target named is Gal(b1-4)GlcNAc(b1-6)[Gal(b1-3)]GalNAc. The procedure, abridged:
as §1

Test [10] addresses Gal(b1-4)GlcNAc(b1-6)[Gal(b1-4)GlcNAc(b1-3)]GalNAc. The procedure, abridged:
as §1

Test [11] addresses Gal(b1-4)GlcNAc6P. The procedure, abridged:
as §1

Test [12] addresses Gal(b1-6)Gal. The procedure, abridged: as §1
In test [13] the target is Gal3S(b1-3)GalNAc. Put shortly: as §1
Test [14] concerns the target Gal3S(b1-3)GlcNAc. Put shortly: as §1
Test [15] deals with Gal3S(b1-3)[Fuc(a1-4)]GlcNAc. Put shortly: as §1

B1: SialidaseA (Arthrobacter ureafaciens) (protein)
chain: MRSNSTSAPSLVRRAATGVLTCAVSIGLLAGLGLPAQAAPTPPNSPTLPPGSFSETNLAADRTAANFFYRIPALTYLGNDVVLAAWDGRPGSAADAPNPNSIVQRRSTDGGKTWGPVQVIAAGHVADASGPRYGYSDPSYIYDAEANKVFAFFVYSKDQGFGGSQFGNDDADRNVISSAVIESSDAGVTWSQPRLITSVTKPGTSKTNPAAGDVRSNFASSGEGIQLKYGPHKGRLIQQYAGDVRQADGSNKIQAYSVYSDDHGVTWHKGANVGDRMDENKTVELSDGRVLLNSRDNANRGYRKVAVSTDGGATYGPVSQDTELPDPANNGAIARMFPNAAQGSADAKKLIFTNANSKTGRENVSARVSCDDGETWPGVRTIRSGFSAYSTVTRLADGKFGVLYEGNYTDNMPFATFDDAWLNYVCAPLAVPAVNIAPSATQEVPVTVTNQEATTLSGATATVYTPSGWSATTVPVPDVAPGASVTVTVALTAPADASGPRSLNAAFTTADGRVSQFTFTATTPVAPQVGLTITGSAPARDVAANPYQAGDVLGYTLNVKSTANVAANSVPLTGTFDSGFLPPAAPNCRYNNLAAGASYNCTTAKHTITAADMERGYFVPEATFSITSTTTPSLTKTVQFTGAAVALRDGLISADISGARTDVGRDLATRPYAAGELVPYAFTVKNTSPFVEQVVPTAGNFSPFLPAGAGNCRYLSLPAGQSYECATPRHAVTAEEVEQGFFVPDTTWEVSAAGQSTRTYRINGGEVDLLVRDAALSATVVAEWKDADGDRFASAGDPVTFTYTVGNAGNVALTGLEAPDAGISLPFLAPGDTATATREHVLTAADVAGGSLAASAFEATARNGSKEVTATAEGQPLELKVQPAQPSKEPELTVQDLEDQTPPFDLGTAFKYRTGQKVSLAGLEYGQWYYVYLNKTGYRLGWMFPTTGDTVEFILPPEVRNGRDDVVVLDKDGRRVSFDRLQVTPKGEKI
On to B1, for which the “glycan array binding signal (z-score)” value in [1] was -0.451; in test [2], -0.655; in test [3], -0.697; in test [4], -0.718; in test [5], -0.428; in test [6] it was -0.447. Also, the “glycan array binding signal (z-score)” value in test [7] was -0.281; in test [8], -0.545; in [9], -0.5; in test [10], -0.374; in test [11], -0.685; in [12] it was -0.753. Also, the results for the “glycan array binding signal (z-score)” value in [13], in test [14] and in [15] were -0.353, -0.552 and -0.337, respectively.
